PubChem BioAssay AID1240 (Sanford-Burnham Center for Chemical Genomics, 2008)
Out of some 50,000 compounds screened, about 800 (1.6%) showed an effect of 50% or more. The list shows a part of the results.

target: Bcl-2-like protein 10 (Homo sapiens) (UniProt Q9HD36); assay: Phenotype converters, Bcl-B/TR3 peptide binding displacement, primary biochemical FP (AID 1240); settings: GST-Bcl-B / FITC-TR3 peptide fluorescence polarization; stronger effect = higher value; compound at 3.75 mg/L;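 further: 0% = Bcl-B with tracer peptide and DMSO and 100% = tracer peptide lacking Bcl-B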
Sequence of UniProt Q9HD36 (Q9HD36 whole entry, looked up): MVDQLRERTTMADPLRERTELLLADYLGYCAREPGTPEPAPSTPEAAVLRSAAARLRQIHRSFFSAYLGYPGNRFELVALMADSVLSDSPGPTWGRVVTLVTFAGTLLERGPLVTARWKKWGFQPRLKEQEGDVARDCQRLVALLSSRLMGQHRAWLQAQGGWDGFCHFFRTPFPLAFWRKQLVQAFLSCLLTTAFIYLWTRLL

| SMILES | displacement [%] |
| --- | --- |
| O=C(Cc1ccccc1)N1N=C(c2ccc(F)cc2)CC1(O)C(F)(F)F (stereo unspecified) | 2.4 |
| O=C(Cn1c2ccccc2c(=O)c2ccccc21)N/N=C/c1cc([N+](=O)[O-])ccc1N1CCCCC1 | -6.8 |
| COc1ccc(C2=NOC(O)(C(F)(F)F)C2)cc1 (stereo unspecified) | -10.2 |
| Cc1ccc(S(=O)(=O)/N=C2/NC(=O)/C(=C/c3cc([N+](=O)[O-])ccc3Cl)S2)cc1 | 8.7 |
| O=c1c2ccccc2c2nc3c(c(-c4ccccc4O)c12)c(=O)c1ccccc13 | 4.4 |
| O=C(COc1ccc(Br)cc1)N1CCN(c2ccccc2)CC1 | 4.1 |
| CC(C)COc1ccc(C(=O)Nc2cccc([N+](=O)[O-])c2)cc1 | 11.7 |
| O=C(Nc1cc(C(F)(F)F)ccc1Cl)C(c1ccccc1)c1ccccc1 | 3.5 |
| CC1=C(C(=O)Nc2ccccc2Cl)C(c2cccc(Cl)c2)NC(=O)N1 (stereo unspecified) | -4.9 |
| COC(=O)C(CCSC)NC(=O)c1cccs1 (stereo unspecified) | -5.1 |
| CN1CCN(C(=O)c2cnn3c(C(F)(F)F)cc(-c4ccco4)nc23)CC1 | 6.4 |
| Cc1cc(NC(=O)c2ccc(Cl)c([N+](=O)[O-])c2)ccc1Br | 14.6 |
| CCN(CC)CCCC(C)NC(=O)c1c(NC(=O)c2ccccc2)sc(C)c1C (stereo unspecified) | 1.2 |
| O=C(NCc1cccnc1)c1cc2nc(-c3cccs3)cc(C(F)(F)F)n2n1 | -2.8 |
| CCc1cc2c(=O)n(-c3ccccc3)c(SCC(=O)c3ccc(OC)cc3)nc2s1 | 4.1 |
| COc1ccc(C(=O)/C=C/c2sccc2C)cc1OC | -4.7 |
| Cc1ccc(S(=O)(=O)N2C(=S)SCC2(C)C)cc1 | 7.2 |
| CCOC(=O)c1ccc(NC(=O)c2ccccc2OCC)cc1 | 4.8 |
| CCC(=O)Nc1nc(-c2ccc(Cl)c(Cl)c2)cs1 | 4.4 |
| COc1ccccc1C1Nc2cc3ccccc3cc2C2=C1C(=O)CC(C)(C)C2 (stereo unspecified) | 9 |
| Cc1ccnc(NS(=O)(=O)c2ccc(NC(=O)c3cc(Cl)ccc3[N+](=O)[O-])cc2)n1 | 7 |
| CC1CCc2c(sc(NC(=O)CSc3nncn3C)c2C#N)C1 (stereo unspecified) | -5.3 |

| SMILES | displacement [%] |
| --- | --- |
| O=C(CN(Cc1ccccc1)S(=O)(=O)c1ccccc1)Nc1cccc(Cl)c1 | 1.8 |
| O=C(/C=C\c1ccccc1)Nc1ccc2nn(-c3ccc(F)cc3)nc2c1 | -6.6 |
| CCc1cc2c(C)c(CC)c(=O)oc2cc1OCC(C)=O | 13.2 |
| CN1CCN(C(=O)c2cc3ccccc3oc2=O)CC1 | 8.4 |
| COc1ccc(-c2cc(C(=O)Nc3sc4c(c3C(N)=O)CCCC4)c3ccccc3n2)cc1OC | 2.6 |
| COc1ccc(CN2CCN(C3CCN(Cc4ccccc4)CC3)CC2)c(OC)c1 | -6.3 |
| O=C(NCCN1CCOCC1)C1CCCC1 | -3.4 |
| C=CCn1c(SCC(=O)N2CCOCC2)nc(O)c(Cc2ccccc2)c1=O | -0.9 |
| O=C(Nc1ccc(Cl)cc1)c1ccccc1C(F)(F)F | 9.7 |
| CC1=C(C(=O)OC(C)C)C(c2ccc(F)cc2)C(C(=O)OC(C)C)=C(C)N1 | 54.7 |
| CCOC(=O)COc1ccc2cc(-c3nc4ccccc4[nH]3)c(=O)oc2c1 | 7.3 |
| CCCc1cc(=O)n2[nH]c(-c3cccc(C)c3)cc2n1 | 12.6 |
| COc1cc(OC)cc(C(=O)Nc2cc(C(F)(F)F)cc(C(F)(F)F)c2)c1 | -4.9 |
| Oc1ccc(Br)cc1/C=N/Nc1ncc(Br)cn1 | -11.3 |
| S=C(Nc1ccc2c(c1)oc1ccccc12)Nc1cccc2ccccc12 | -2.1 |
| CN(C1=NC(=O)S/C1=C\c1ccc([N+](=O)[O-])cc1)c1ccc(O)cc1 | 16.4 |
| CC(NC(=O)c1cc2cc([N+](=O)[O-])ccc2oc1=O)c1ccccc1 (stereo unspecified) | 12.2 |
| Cc1cc(Br)c2c(c1)c(N=NC(N)=S)c(O)n2C | 4.9 |
| O=C1c2cccc3cccc(c23)C(=O)N1CCc1nc2sc3c(c2c(=O)[nH]1)CCCC3 | -6 |
| COc1ccccc1N1CCN(/N=C/c2ccc(C(=O)O)cc2)CC1 | 21 |
| COc1ccc(/C=C2\SC(=Nc3ccc(C)cc3)N(c3ccc(C)cc3)C2=O)cc1C(=O)O | -49.6 |
| CC(C)OC(=O)C1C(=O)CC(C)(O)C(C(=O)OC(C)C)C1c1cccc([N+](=O)[O-])c1 (stereo unspecified) | -22.5 |

| SMILES | displacement [%] |
| --- | --- |
| Cn1cnnc1SCC(=O)N1c2ccccc2Sc2ccccc21 | 0.1 |
| COc1ccc(N2C(=O)NC(=O)/C(=C/c3cccn3-c3ccc([N+](=O)[O-])cc3)C2=O)cc1 | -1.7 |
| O=C(N/C(=C/c1cccs1)C(=O)N1CCOCC1)c1cccs1 | -12.2 |
| CC(=O)c1cccc(NC(=O)C(Sc2ccccc2)c2ccccc2)c1 (stereo unspecified) | -4.5 |
| CC(C)(C)CC(C)(C)NC(=O)CSc1nnc(-c2cccc(F)c2)n1-c1ccccc1 | -14.6 |
| COc1ccc(N2C(=O)c3ccc(C(=O)Nc4ccccc4I)cc3C2=O)cc1 | 10 |
| Cc1cc2ncn(CC(O)COc3ccc(Br)cc3)c2cc1C (stereo unspecified) | -39.8 |
| O=C1NC(c2ccc(F)cc2)Oc2ccccc21 (stereo unspecified) | -8.6 |
| Cc1ccc(C(=O)NCCNc2ccc([N+](=O)[O-])cc2Cl)o1 | 1.6 |
| COc1ccc(NC(=O)c2ccc(Cc3ccc(C)cc3)o2)cc1 | 9.5 |
| COCCOC(=O)c1c(C)oc2ccc(OCc3ccccc3F)cc12 | 15 |
| COc1ccc(OC)c(C2/C(=C(/O)c3ccccc3)C(=O)C(=O)N2c2nc3ccccc3s2)c1 (stereo unspecified) | -6 |
| COc1ccc(C2Nc3ccccc3C(=O)N2Cc2ccco2)cc1COc1ccc(NC(C)=O)cc1 (stereo unspecified) | -5.1 |
| CN(C)c1c([N+](=O)[O-])cc([N+](=O)[O-])c2cccnc12 | 2.9 |
| O=C(c1ccc(Cl)cc1)c1ccc2c(c1)OCCCO2 | 3.3 |
| CCN(CC)c1ccc(NC(=O)S(=O)(=O)c2ccccc2)cc1 | -1.3 |
| COc1ccc(/C=C/C(=O)c2cccc(Br)c2)cc1[N+](=O)[O-] | -2.7 |
| COCCCNC(=O)CN(c1cccc(Br)c1)S(=O)(=O)c1ccccc1 | -5 |
| Cc1cccn2c(=O)c(/C=C3\SC(=S)N(CC4CCCO4)C3=O)c(NCCc3ccccc3)nc12 (stereo unspecified) | 8.5 |
| COc1cc(/C=c2\sc3nc4ccccc4n3c2=O)cc(Cl)c1OCCOc1ccc(Br)cc1 | -2.9 |
| O=C1CSC(c2ccccc2)N1c1ccc([N+](=O)[O-])cc1 (stereo unspecified) | 7.3 |
| CC1=Cc2cc([N+](=O)[O-])ccc2OC12C=Cc1c(ccc3ccccc13)O2 (stereo unspecified) | 0 |

| SMILES | displacement [%] |
| --- | --- |
| COc1ccc(C2CC(=O)C3=C(C2)Nc2ccccc2NC3c2ccccc2C(F)(F)F)cc1OC (stereo unspecified) | -7.1 |
| CC(C)CC(=O)N1CCN(Cc2c[nH]c3ccccc23)CC1 | -4.2 |
| O=C(Nc1ccc(Br)c(Cl)c1)c1cccs1 | 2.1 |
| O=C(/C=C/Nc1ccccc1)c1ccccc1 | 11.9 |
| CCN(CC)CCC(=O)c1ccc(O)cc1 | 5.6 |
| O=C(Nc1ccc([N+](=O)[O-])cc1)c1ccc(Cl)cc1Cl | 8.8 |
| Fc1cccc(Cl)c1COc1ccc(/C=N/n2cnnc2)cc1 | 9.4 |
| CCOC(=O)c1sc(Nc2ccccc2)nc1-c1ccc([N+](=O)[O-])cc1 | -6 |
| O=[N+]([O-])c1ccc(/C=N\Nc2nc(-c3ccccc3)c3cc(Cl)ccc3n2)o1 | -5.3 |
| CN1C(=O)C(=Cc2ccc(OCc3ccccc3F)cc2)C(=O)N(C)C1=O | 9.6 |
| C=CCN=C1CC(C)(C)CC(=O)/C1=C(/O)CCC | -2.7 |
| COc1ccccc1NC(=O)C1C2C=CC(C3CC23)C1C(=O)O (stereo unspecified) | -4.2 |
| CCOC(=O)C1=C(O)/C(=C/c2ccc(Cl)cc2)SC1=Nc1cccc2ccccc12 | -11.7 |
| Cc1cc(C)c(/C=N/NS(=O)(=O)c2ccc(Cl)cc2)c(C)c1 | -9.5 |
| COc1ccc(C(=O)N=Nc2c(O)n(CN3CCN(C)CC3)c3ccccc23)cc1 | -6.2 |
| Cc1ccc(C(=O)N/C(=C\c2cccc([N+](=O)[O-])c2)C(=O)NCC(C)C)cc1 | 7.3 |
| C[n+]1ccc(/C=C/c2ccc(O)cc2)cc1 | -7.4 |
| CCOC(=O)c1cccc(NC(=O)c2ccc(Cl)cc2Cl)c1 | 5 |
| Cc1ccc2oc(Nc3nc(C)cc(=O)[nH]3)nc2c1 | 7.3 |
| COc1cc2c(cc1NC(=O)CCC1CCCC1)oc1ccccc12 | 6.4 |
| Cc1cccc(OCCSc2nc3ccccc3c(=O)[nH]2)c1 | 1.8 |
| COc1cc(-c2nnc3ccc(C(F)(F)F)cn23)ccc1Oc1ccc([N+](=O)[O-])cc1 | -9.2 |

| SMILES | displacement [%] |
| --- | --- |
| O=C(NC(NC(=O)c1ccccc1)c1cccc([N+](=O)[O-])c1)c1ccccc1 | -1.1 |
| COc1ccc(-c2nnnn2C)cc1S(=O)(=O)Nc1ccc(C)c(Cl)c1 | 8.3 |
| CCN(CC)c1ccc(N=Cc2ccc(Cl)cc2Cl)cc1 | -7.2 |
| Cc1ccc(C)c(NC(=O)c2cccc(Cl)c2)c1 | -5.3 |
| CC(C)NCC(=O)C12CC3CC(CC(C3)C1)C2 | 0.7 |
| C/C(Cn1nnc([N+](=O)[O-])n1)=N/NC(=O)Cc1ccccc1 | -2.3 |
| CCOC(=O)C(=CNc1cc(OC)cc(OC)c1)C(=O)OCC | 2.7 |
| CC(C)(C)NC(=O)c1cc(-c2ccccc2)n(-c2ccccc2)n1 | 0.3 |
| Cc1ccc([N+](=O)[O-])cc1/C=N/NC(=O)CSCC(=O)Nc1ccccc1 | -8.1 |
| FC(F)(F)c1cccc(Nc2nc(-c3ccncc3)nc3ccccc23)c1 | 11.1 |
| C=CCOc1ccc2c(C)cc(=O)oc2c1C | -8 |
| CC(C)(C)c1cc(C(c2ccccc2O)N2CCOCC2)cc(C(C)(C)C)c1O (stereo unspecified) | -3.1 |
| C/C(=N\NC(=O)C(O)c1ccccc1)c1cccc(NC(=O)c2ccco2)c1 (stereo unspecified) | -5.8 |
| Cc1ccc2c(c1)NC(c1ccc(C)o1)C1=C(CC(C)(C)CC1=O)N2 (stereo unspecified) | 88.5 |
| CCOC(=O)NC(Nc1ccccc1[N+](=O)[O-])(C(F)(F)F)C(F)(F)F | 2.3 |
| Cc1nn(-c2nc3ccccc3s2)c(C)c1Oc1ccccc1O | -9.6 |
| COC(=O)c1c(C)oc2ccc(OC(=O)c3ccco3)cc12 | 11.7 |
| Cc1cc(C(=O)/C=C/c2ccc(N(C)C)cc2)ccc1[N+](=O)[O-] | -10.3 |
